Laboratory results from the supplement of paper PMC12217912.
The list shows a part of the results. The full chains were built here from the parent and the listed change. Values near 0.05 are background.

B1: TEV protease; numbered along this chain (parent)
chain: MGESLFKGPRDYNPISSSICHLTNESDGHTTSLYGIGFGPFIITNKHLFRRNNGTLVVQSLHGVFKVKDTTTLQQHLVDGRDMIIIRMPKDFPPFPQKLKFREPQREERICLVTTNFQTKSMSSMVSDTSCTFPSGDGIFWKHWIQTKDGQCGSPLVSTRDGFIVGIHSASNFTNTNNYFTSVPKNFMELLTNQEAQQWVSGWRLNADSVLWGGHKVFMVKPEEPFQPVKEATQL

Variants of: B1
Assay: raw area under fraction-flipped curve 0-4 h after induction (AUC4h, not background-subtracted), DNA-recorder readout of cleavage of the substrate (dimensionless); higher = more cleavage of the substrate by the protease variant
Conditions: temperature: 34 °C; time window: 0-4 h after rhamnose induction
Experimental: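 In vivo DNA recorder in E. coli TOP10(DE3) ΔrhaA at 34 °C. Each TEVp single-site mutant (parent TEVp 0) is paired with a single-site variant of the 7-mer TEVs (canonical ENLYFQ|S). The substrate sits between flexible linkers in a Bxb1-sfGFP-TEVs-SsrA fusion, so cleavage stabilises Bxb1 and speeds flipping of a recombination array, read by NGS. The value is the raw area under the fraction-flipped curve over 0-4 h after rhamnose induction (AUC4h), with ≥20 reads per time point. It is not background-subtracted; inactive controls average about 0.047.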
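Also: Bxb1 expression induced with 0.2% (w/v) L-rhamnose at OD600 near 0.5, cultures sampled hourly, flipped fraction per protease–substrate barcode pair counted by paired-end Illumina sequencing.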

Variant | area with substrate ENLYFQA | area with substrate ENLYFQG | area with substrate ENLYFQK | area with substrate ENLYFQL | area with substrate ENLYFQN | area with substrate ENLYFQS | area with substrate ENLYFQW | area with substrate ENLYFQY | area with substrate ENLYFQD | area with substrate ENLYFQE | area with substrate ENLYFQH | area with substrate ENLYFQI | area with substrate ENLYFQM | area with substrate ENLYFQP | area with substrate ENLYFQR | area with substrate ENLYFQT | area with substrate ENLYFQC | area with substrate ENLYFQF | area with substrate ENLYFQQ | area with substrate ENLYFQV
G202D | 0.0875 | 0.0846 | 0.0531 | 0.053 | 0.0701 | 0.0688 | 0.0602 | 0.055 | – | – | – | – | – | – | – | – | – | – | – | –
G202P | 0.0624 | 0.0625 | 0.0472 | 0.0625 | 0.0501 | 0.06 | 0.039 | – | 0.0723 | 0.0687 | 0.0551 | 0.0579 | 0.0631 | 0.0581 | 0.0719 | 0.0581 | – | – | – | –
R204S | 0.174 | 0.124 | 0.0694 | 0.0547 | 0.1 | 0.109 | – | 0.0964 | 0.0881 | – | – | 0.0588 | 0.0687 | 0.0549 | 0.0723 | 0.0679 | 0.106 | 0.088 | 0.136 | –
P9I | 0.11 | 0.148 | – | – | – | 0.109 | – | 0.0919 | – | – | 0.0843 | – | 0.0895 | – | – | 0.0664 | – | – | – | 0.0538
F6W | 0.105 | 0.0913 | 0.0675 | 0.062 | 0.0765 | 0.0995 | 0.0626 | 0.0738 | 0.0697 | – | 0.0983 | 0.0438 | 0.0444 | 0.0687 | 0.0716 | 0.0678 | 0.131 | 0.0633 | – | 0.0578
P225G | 0.0984 | – | 0.0519 | 0.0628 | 0.0736 | 0.101 | 0.0168 | 0.0742 | 0.0782 | – | – | 0.0555 | 0.0947 | 0.0628 | 0.061 | – | 0.114 | – | 0.0757 | 0.0643
Q198M | 0.105 | 0.0958 | 0.0611 | 0.0553 | – | 0.0956 | 0.0614 | 0.0738 | – | – | 0.0991 | 0.0484 | 0.12 | 0.0626 | 0.0604 | 0.0555 | 0.109 | – | 0.0809 | 0.0581
N178E | 0.0656 | 0.0556 | 0.0549 | 0.0435 | – | 0.0686 | 0.0738 | – | – | – | 0.0584 | 0.038 | – | 0.0811 | – | – | 0.0795 | – | – | –
L5C | 0.123 | – | – | – | 0.0918 | 0.102 | 0.0645 | 0.0798 | 0.0733 | – | – | – | 0.0756 | – | 0.0681 | 0.0697 | – | – | – | –
I42K | 0.0407 | 0.0367 | 0.0314 | 0.0419 | 0.0432 | 0.0473 | 0.0492 | 0.0578 | – | 0.054 | 0.046 | 0.0469 | 0.0396 | 0.0591 | 0.0465 | 0.0413 | 0.0414 | – | – | 0.0315
R10T | 0.0859 | 0.111 | 0.0686 | 0.0659 | 0.0757 | 0.103 | 0.0976 | – | – | – | – | 0.0655 | 0.0754 | – | 0.0644 | 0.0597 | – | – | – | 0.0651
H76V | 0.0884 | 0.0632 | 0.0578 | – | 0.0843 | 0.0958 | 0.0627 | – | – | – | – | – | 0.101 | – | – | – | 0.0748 | – | – | –
S17T | 0.111 | 0.101 | – | 0.0663 | – | 0.113 | 0.0666 | – | 0.0844 | – | – | 0.0559 | 0.091 | 0.0722 | 0.059 | 0.0692 | 0.122 | – | – | 0.0471
S17I | 0.0991 | 0.0886 | 0.0679 | 0.0559 | – | 0.106 | 0.0452 | 0.0706 | – | – | 0.0767 | 0.0495 | – | – | 0.0534 | 0.0466 | 0.101 | – | – | –
I43Y | 0.0454 | – | 0.0522 | 0.0518 | – | 0.0539 | 0.0536 | 0.0487 | 0.0547 | 0.0399 | – | – | 0.052 | – | 0.0543 | 0.0393 | 0.0675 | 0.0409 | – | 0.0427
L61R | 0.12 | 0.127 | – | 0.0792 | 0.083 | 0.109 | 0.0641 | – | 0.0399 | 0.0599 | 0.068 | 0.0745 | 0.105 | – | 0.0506 | 0.0739 | 0.123 | 0.0824 | 0.077 | –
G162I | 0.072 | – | – | 0.0441 | 0.0514 | 0.0693 | – | – | – | – | – | – | – | – | 0.0563 | – | – | – | – | –
V67Y | 0.0359 | – | – | 0.0623 | – | 0.0806 | 0.0632 | – | 0.0814 | – | – | – | – | – | 0.0582 | 0.0704 | 0.0833 | – | – | –
V210R | 0.0707 | – | – | – | 0.0669 | 0.0764 | – | 0.0526 | – | – | – | 0.0533 | 0.0578 | 0.0317 | 0.0573 | 0.0655 | 0.102 | – | – | 0.0647
V210H | 0.101 | 0.0847 | – | – | 0.0575 | 0.0848 | 0.0587 | 0.0652 | – | – | – | – | – | 0.0616 | 0.0638 | 0.064 | 0.0916 | – | – | 0.0289
T115L | 0.0764 | – | – | 0.0391 | 0.0974 | 0.106 | – | 0.0763 | – | – | 0.0942 | – | 0.0857 | 0.096 | – | 0.0606 | – | 0.049 | – | –
D11C | 0.121 | 0.0898 | 0.0607 | 0.0596 | 0.0688 | 0.102 | 0.0664 | 0.0923 | – | 0.0596 | – | – | 0.0889 | – | 0.0584 | 0.0959 | 0.155 | 0.0754 | – | 0.0542
D27M | 0.0587 | 0.0644 | – | 0.0625 | – | 0.091 | 0.0791 | – | – | – | 0.0682 | 0.0527 | – | 0.044 | 0.0662 | 0.063 | 0.0971 | – | 0.0733 | –
D208P | 0.0638 | – | 0.0609 | – | – | 0.0762 | – | – | 0.0554 | 0.0551 | – | 0.0365 | – | – | 0.0344 | 0.0565 | 0.0867 | 0.0709 | – | 0.0581
K90N | 0.101 | – | 0.0667 | 0.0578 | – | 0.0974 | 0.0663 | – | – | – | – | – | 0.0861 | – | 0.0597 | – | 0.102 | – | – | 0.0548
K90P | 0.0954 | 0.0846 | 0.0667 | – | 0.0081 | 0.101 | 0.0644 | 0.0764 | 0.0573 | – | 0.0764 | – | – | – | 0.0613 | 0.052 | 0.108 | – | – | –
R51P | 0.059 | 0.0713 | 0.059 | 0.0769 | 0.0712 | 0.0686 | – | 0.0517 | 0.0701 | – | 0.0644 | 0.0447 | – | – | – | 0.112 | 0.0686 | 0.0446 | 0.043 | 0.0554
R51Y | 0.107 | 0.116 | 0.0641 | – | – | 0.117 | – | 0.105 | – | – | 0.0792 | – | 0.0859 | 0.0574 | – | 0.0742 | – | – | – | 0.0925
